Source: the supplement of paper PMC3334620
Over roughly 33,000 sequences, “E-score (-0.5 to 0.5)” has its median near -0.013; the highest 2% begin near 0.3. The list shows a part of the results.

target: T1, Msn1 (UniProt P22148); test: PBM E-score (8-mer binding enrichment) (E-score (-0.5 to 0.5)); higher = stronger / more preferred TF binding; most listed sequences are background and not binding sites; conditions: protein concentration: 200 nM; construct: GST-full length
T1 sequence: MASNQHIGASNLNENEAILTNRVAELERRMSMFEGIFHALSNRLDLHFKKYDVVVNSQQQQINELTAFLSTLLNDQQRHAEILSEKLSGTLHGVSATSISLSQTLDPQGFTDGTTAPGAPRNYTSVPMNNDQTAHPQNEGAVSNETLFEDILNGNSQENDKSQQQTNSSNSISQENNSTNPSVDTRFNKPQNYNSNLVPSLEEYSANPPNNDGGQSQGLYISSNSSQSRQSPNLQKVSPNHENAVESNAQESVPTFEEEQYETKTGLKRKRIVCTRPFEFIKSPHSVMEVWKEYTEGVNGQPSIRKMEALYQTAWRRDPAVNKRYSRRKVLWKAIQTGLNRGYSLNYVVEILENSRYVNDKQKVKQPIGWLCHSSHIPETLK
Procedure, shortened: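 Full-length yeast transcription factors or their DNA-binding domains, GST-tagged and expressed with PURExpress, were applied at about 100-200 nM to universal all-10-mer Agilent arrays. These arrays had been made double-stranded by primer extension on fresh or once-stripped slides. Detection used fluorescent anti-GST, normalisation used masliner, and E-scores for ungapped eight-base words pooled with reverse complements came from the Universal PBM Analysis Suite.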

Sequence	PBM E-score
ACAGTCGA	-0.0747
AAGCAGCG	-0.07
CAGAACGC	-0.144
GAACCCGA	-0.0647
ACCTCACA	-0.124
CACCGCGG	0.0101
ACCTCGAG	-0.0305
CATTATTA	0.111
CGGACCGA	0.165
CCTTAAAC	-0.114
GAGTCTCA	0.00041
AGACATTA	0.429
TGGGGACA	0.433
CAAAGGCG	-0.0257
ATTGTGAA	0.0287
GCAAGGTA	-0.0942
GGATACAA	0.155
CCTATGAA	-0.00165
CAGCCCCA	-0.196
AAATCCCT	-0.141
CAAGATCA	-0.135
ACCCCACC	-0.111
AGGATCAA	0.104
ATAATCTG	-0.129

Sequence	PBM E-score
CGACTCAG	-0.0304
ACTTACTA	-0.0134
ATACCCCA	0.105
CTTTCTAA	0.174
AATCTGGA	-0.0116
AGCGGCTC	-0.0877
CCGGATAC	0.0563
AATACATC	0.0242
GGCCATAA	0.02
GTCGTTGA	0.0537
CCATTAGG	-0.0674
GGCGGCCC	-0.338
AACATTCA	-0.0503
CGAACGAG	0.0596
CGAGAGAG	-0.0305
AATACGAC	-0.0936
AGGTTCAT	-0.256
CGTAACTC	-0.304
CCGCGTGC	-0.206
CATACCAC	0.155
CACATGGC	-0.028
GATTAAAA	0.25
AGAAGACC	-0.156
CTACACGC	-0.145

Sequence	PBM E-score
CTGTACTA	0.177
ACAAATGG	0.345
AAGTTACA	-0.11
AGTCGCGA	0.21
TAGTGTGA	-0.141
AGCTATCC	-0.139
CCCGAGGC	-0.25
ATGCCAAG	0.114
ACGGGTTA	-0.274
CCAACTCG	-0.116
TCCATAGA	0.241
GTACACTA	0.0663
CCTGCCGA	-0.0209
CTATGGCC	-0.165
CCCGGGAC	0.0863
CTTGTGTC	0.304
TCACAAAA	0.119
CCCTGGAA	-0.222
AGCACGGA	-0.0452
CGTTGTCC	0.413
ACACACCC	0.131
ACGTATCC	-0.0999
TGGATAAA	0.182
GCCTAACC	-0.109

Sequence	PBM E-score
TATGTGAA	-0.121
CAAAGTCC	0.296
TAGAGTAA	0.00729
GTTGGCAA	-0.0296
AGATCAAG	0.0944
AAGGTTCG	0.0141
ACGTATCA	-0.0451
CCGTGTCC	0.413
AACTAATA	0.326
CCAGGTAA	0.0404
GCACATAA	-0.0366
CCCCTTCG	-0.192
CAGCGCCG	-0.125
CAGCAGAC	0.0732
CGGAGAAA	0.0512
AACCTGCC	-0.102
CCAGGTAC	-0.0417
CGAGTAGA	-0.165
ACAAAATC	0.352
ACTTGATG	0.0141
CAAAGCCG	0.0702
GGGAATCA	-0.0168
